Assay results taken from the supplement of paper PMC4166925.
± gives the standard deviation of the averaged measurements. Over roughly 33,000 sequences, “E-score (dimensionless, -0.5 to 0.5)” has its median near -0.046; the highest 2% begin near 0.36. The list shows a part of the results.

Test system: T1, SpTbr T-box DNA-binding domain (GST fusion)
T1 sequence: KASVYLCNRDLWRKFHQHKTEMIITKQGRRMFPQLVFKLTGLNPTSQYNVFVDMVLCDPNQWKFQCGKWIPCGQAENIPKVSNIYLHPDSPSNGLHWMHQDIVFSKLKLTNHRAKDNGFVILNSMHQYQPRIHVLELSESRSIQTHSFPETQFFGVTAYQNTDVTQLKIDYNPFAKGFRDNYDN
Experiment: PBM E-score of 8-mer (E-score (dimensionless, -0.5 to 0.5)); Tbr is Tbrain of the sea star Patiria miniata (Pm) or the sea urchin Strongylocentrotus purpuratus (Sp); higher = stronger binding preference; most listed sequences are background and not binding sites
Settings: the construct has about 5 more residues each side
Summary of the method: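 Each ungapped 8-mer received an enrichment E-score from the Universal PBM Analysis Suite, averaged over duplicate arrays. The proteins were Tbr T-box DNA-binding domains, covering the whole T-box plus about five flanking residues, fused to GST and expressed in BL21 E. coli at 20 °C before glutathione affinity purification. Universal Agilent oligonucleotide arrays were made double-stranded by primer extension and incubated with 200 nM protein in PBS (pH 7.5). The arrays were then scanned and quantified, and every 8-mer was scored from probe intensities.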

Point of comparison: TAGGGGGA, “PBM E-score of 8-mer” value -0.358 ± 0.076. Against it:
- CAGGCCAC — higher, -0.16 ± 0.023
- AGCTCCGA — higher, -0.0358 ± 0.0032
- CCGCTAAG — higher, 0.123 ± 0.036
- CGGGCCCG — higher, 0.118 ± 0.0044
- CAGACGCG — higher, 0.106 ± 0.014
- ACCGGGAA — higher, -0.00407 ± 0.018
- GGGAGTAA — higher, -0.125 ± 0.03
- AGGGGTAC — within error, -0.388 ± 0.0051
- CTATTCAA — higher, -0.0432 ± 0.04
- GTGACACA — higher, 0.403 ± 0.0044
- AGCTTGGC — higher, -0.191 ± 0.011
- ACTCATTG — higher, -0.195 ± 0.021
- AGCACGCG — higher, 0.184 ± 0.084
- GTAGCCCA — within error, -0.326 ± 0.024
- GCAGGGGA — higher, -0.158 ± 0.0024
- AGCCTGGC — higher, -0.0911 ± 0.098
- CGGAACGC — higher, -0.0517 ± 0.0057
- CGGACCTC — higher, -0.241 ± 0.032
- GCTATAGA — higher, -0.117 ± 0.04
- CCGGAGTC — higher, -0.22 ± 0.022
- AGTTTAAC — higher, 0.061 ± 0.052
- GATGCGGC — higher, -0.00677 ± 0.059
- CGAGACTA — higher, -0.0467 ± 0.079
- CGCTTGGC — higher, 0.0461 ± 0.027
- AGTAGACC — higher, -0.227 ± 0.012
- CACCCCTA — higher, 0.212 ± 0.022
- CTGCCTGC — higher, -0.0472 ± 0.012
- CACCGCCG — higher, 0.151 ± 0.1
- CAATATGA — higher, -0.0419 ± 0.055
- ATACCCTA — higher, -0.00277 ± 0.015
- AATCTCTA — higher, -0.14 ± 0.0019
- CGTTGCAA — higher, -0.0447 ± 0.069
- GCTAAGAC — higher, 0.107 ± 0.024
- CTGTATCC — within error, -0.308 ± 0.015
- CAAGCTCG — higher, 0.179 ± 0.07
- ATAAACGC — higher, -0.0649 ± 0.055
- CCGTTGGC — higher, 0.114 ± 0.049
- AACGAGGT — higher, 0.0562 ± 0.023
- GTGTTTTA — higher, 0.153 ± 0.063
- CCTCCGGA — within error, -0.273 ± 0.037
- CCGAGCAG — within error, -0.248 ± 0.051
- AACACCAG — higher, 0.317 ± 0.028
- ATTAACCA — higher, -0.105 ± 0.04
- AACTGGTA — higher, -0.149 ± 0.097
- TTTCAAAA — within error, -0.319 ± 0.022
- TCAGCAGA — higher, -0.0115 ± 0.056
- AGTACACT — higher, -0.0848 ± 0.0016
- GTTCCGAA — higher, -0.0971 ± 0.012
- ACGAGGCT — higher, -0.0815 ± 0.027
- CTAATGGA — higher, -0.23 ± 0.029
- CTATATTC — higher, -0.11 ± 0.0049
- CCCCGATC — higher, -0.114 ± 0.068
- GGGCATGA — higher, -0.114 ± 0.095
- CGGTCTCA — higher, 0.0133 ± 0.015
- GTCCCTCA — higher, -0.0661 ± 0.0065
- AGTTAAAT — higher, 0.0309 ± 0.029
- GTCAAGCA — higher, 0.0528 ± 0.058
- TAAGTGGA — higher, -0.154 ± 0.021
- AGTCGCTG — higher, 0.00855 ± 0.018
- ATTCAACC — within error, -0.292 ± 0.017
- ACAGTAAG — higher, -0.0572 ± 0.039
- ATCTCCAA — higher, -0.042 ± 0.011
- CCGGAAGC — higher, -0.184 ± 0.0028
- TAACTGCA — higher, -0.142 ± 0.029
- CTACAATA — within error, -0.243 ± 0.05
- CGCTCGTA — higher, -0.16 ± 0.05
- AAGTGAGA — higher, 0.4 ± 0.018
- GCTACAAC — higher, -0.103 ± 0.082
- TAGCGGGA — higher, 0.129 ± 0.0016
- ATCATCAA — higher, -0.0434 ± 0.035
- ATTCTCTC — higher, 0.184 ± 0.073
- TCGATGAA — higher, -0.0667 ± 0.029
- GAGACGAA — higher, 0.0902 ± 0.03
- CTTCGTTC — higher, -0.225 ± 0.016
- CGAGACCC — higher, 0.023 ± 0.087
- CGTGTTCC — higher, -0.00256 ± 0.0016
- GCGTCTCC — higher, -0.148 ± 0.032
- AGGTGCCA — higher, 0.46212 ± 0.00034
- CTTGATGC — higher, -0.133 ± 0.077
- AGATGGAG — higher, -0.0973 ± 0.04
- ATAATGAT — higher, -0.0307 ± 0.086
- GAAAAAAC — higher, -0.168 ± 0.084
- CTTTCTCA — higher, 0.0539 ± 0.05
- ATACGGTA — higher, -0.0948 ± 0.036
- ATACCACA — higher, 0.0405 ± 0.0085
- GCGGTAGC — higher, 0.0482 ± 0.081
- GAGTAGGC — higher, -0.0954 ± 0.017
- CACCTGGC — higher, 0.389 ± 0.021
- ACCCAACC — higher, -0.172 ± 0.05
- TCGGCAGA — higher, -0.151 ± 0.026
- AAGAACTT — higher, -0.161 ± 0.0073
- ACCTAACC — higher, 0.1222 ± 0.0011
- CCAATCTC — higher, -0.0229 ± 0.042
- CCAAATAA — within error, -0.267 ± 0.079
- GTATCTTA — higher, -0.126 ± 0.009
- ATGGTATG — higher, -0.153 ± 0.00027
- AAATCAAG — higher, 0.0228 ± 0.13
- ACATGACA — higher, 0.273 ± 0.012
- ACCGCTTC — higher, 0.134 ± 0.052
- CCAGGTGA — higher, 0.306 ± 0.012
- AGGGGGAC — higher, -0.244 ± 0.00034
- ATGCCTGC — within error, -0.295 ± 0.061
- CTACGTAA — higher, -0.143 ± 0.038
- ATGGAGGC — higher, -0.106 ± 0.12
- CATACAGA — higher, -0.139 ± 0.074
- AAGTTCGA — higher, -0.1837 ± 0.00034
- AAGCTTGT — higher, -0.0869 ± 0.0036
- GCCGTCAA — higher, 0.18 ± 0.028
- CGAGCTTA — higher, -0.102 ± 0.052
- CCTGATCC — higher, -0.0305 ± 0.061
- AGCGACAA — higher, 0.277 ± 0.011
- AAGGTTTG — higher, -0.161 ± 0.046
- CTTCTGCC — higher, -0.0597 ± 0.052
- GTTTGGCA — higher, 0.184 ± 0.0023
- TATGGCAA — higher, -0.0439 ± 0.069
- CCTATCTC — higher, 0.103 ± 0.0033
- GACGGCTC — higher, 0.055 ± 0.031
- CTGGAGCA — higher, -0.207 ± 0.0043
- AAATACCC — within error, -0.264 ± 0.063
- GCTCGGCC — higher, -0.171 ± 0.024
- GCAAAGCA — higher, 0.0155 ± 0.053
- CTATCGAC — higher, 0.139 ± 0.016
- CTCCCGTC — higher, -0.079 ± 0.017
- ACAGTACT — higher, -0.0283 ± 0.067
- AGGGCTCA — higher, -0.185 ± 0.029
- AATCGGGA — higher, -0.172 ± 0.031
- CTGTACGC — higher, -0.142 ± 0.069
- GCCGAAAA — higher, -0.0477 ± 0.021
- AGTCAACT — higher, -0.022 ± 0.024
- CTAGTGCA — higher, 0.168 ± 0.053
- ACAAATTC — higher, 0.0389 ± 0.035
- CAATCGGC — higher, 0.0185 ± 0.0079
- CACAATAA — higher, 0.11 ± 0.04
- CCAAGCTC — higher, -0.0336 ± 0.11
- CAGTATTC — within error, -0.193 ± 0.092
- TGTGCCAA — higher, 0.364 ± 0.021
- GCCAAACA — higher, 0.0846 ± 0.072
- CCTGACAG — higher, 0.121 ± 0.0013
- GCCGCACC — higher, 0.339 ± 0.023
- GGTCGAAA — higher, -0.0954 ± 0.061
- GACCCTAC — higher, -0.123 ± 0.017
- CGCGGTAA — higher, 0.1 ± 0.0039
- AGGGCCTC — within error, -0.335 ± 0.053
- AAGGCTGT — higher, 0.145 ± 0.065
- GGTACTCA — higher, -0.0116 ± 0.057
- ATAGCGAT — higher, -0.0941 ± 0.058
- CCCTTCAC — higher, 0.244 ± 0.03
- GGTTCGTA — higher, -0.0542 ± 0.047
- GCACCATA — higher, 0.0415 ± 0.021
- CTGCCGTA — higher, -0.211 ± 0.037
- TATCACAA — higher, 0.284 ± 0.056
- CTTTTGTC — higher, -0.0884 ± 0.067
- CATTTTAG — higher, 0.04 ± 0.0022
- CGCTCCAC — higher, -0.132 ± 0.071
- ACAGCCTC — higher, -0.149 ± 0.017
- TCTTTACA — higher, 0.157 ± 0.019
- TAGAGCAA — higher, -0.253 ± 0.0093
- ATTCGAAG — higher, -0.0382 ± 0.12
- AGCTAAAA — higher, 0.0957 ± 0.021
- ATGGCATG — higher, 0.06 ± 0.077
- TGATCGAA — higher, -0.00359 ± 0.012
- GTCGGCGA — higher, 0.137 ± 0.014
- CAGCTCAG — higher, 0.0773 ± 0.05
- AATGGTGT — higher, 0.316 ± 0.036
- ATATTTCC — higher, -0.1629 ± 0.0002
- CCTGTCCC — higher, -0.0493 ± 0.082
- TATGCCGA — higher, -0.213 ± 0.032
- CGTGTCCA — higher, 0.0571 ± 0.015
- AGAACCTG — higher, -0.00272 ± 0.02
- ATGTCGTA — higher, -0.0703 ± 0.05
- GATTAAAC — higher, 0.0727 ± 0.084
